Consider two molecules from patent publication US20180148485A1 (Pieris, published 2018).

Broadly, the EC50 is the concentration giving half of the maximal effect.

In assay [1] the target is T1, recombinant human GPC3 (R&D Systems #2119-GP-050/CF) (human, UniProt P51654 25-559).
T1 construct: also called Glypican-3; biotinylated human GPC3
Kind of assay: ELISA, GPC3 coated, anti-NGAL-HRP detection. An excerpt: GPC3 was coated on a microtiter plate and the tested molecules were titrated. […] The data was fitted with a 1:1 binding model with EC50 value and the maximum signal as free parameters, and a slope that was fixed to unity.
On the technique in general: In an ELISA, binding on a coated surface is turned into a signal by an enzyme label.

Assay [2] addresses T2, recombinant human CD137-Fc fusion protein (#838-4B-100, R&D Systems) (human, UniProt Q07011 24-186).
T2 construct: also called Fc-fusion of human CD137; not shown: Fc part of the bought fusion protein, not described
In words: ELISA, CD137-Fc coated, as described in Example 3. An excerpt:
(§1) The data was fitted with a 1:1 binding model with EC50 value and the maximum signal as free parameters, and a slope that was fixed to unity.

The target in assay [3] is T3, neonatal Fc receptor (FcRn, Sino Biologicals, #CT009-H08H) (UniProt P55899 in part; P61769 in part).
T3 construct: Covalently immobilised on a CM5 chip
T3 sequence (P55899 24-297 limits assumed, form in doubt, chain 1 of 2): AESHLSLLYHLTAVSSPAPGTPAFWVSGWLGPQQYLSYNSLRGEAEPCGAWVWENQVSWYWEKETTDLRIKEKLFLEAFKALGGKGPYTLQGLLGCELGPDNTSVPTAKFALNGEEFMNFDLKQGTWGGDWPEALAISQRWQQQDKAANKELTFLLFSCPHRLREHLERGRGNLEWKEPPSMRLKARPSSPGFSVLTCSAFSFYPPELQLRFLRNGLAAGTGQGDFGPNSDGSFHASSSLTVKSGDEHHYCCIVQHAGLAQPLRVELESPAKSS
T3 sequence (P61769 21-119 limits assumed, form in doubt, chain 2 of 2, further chain): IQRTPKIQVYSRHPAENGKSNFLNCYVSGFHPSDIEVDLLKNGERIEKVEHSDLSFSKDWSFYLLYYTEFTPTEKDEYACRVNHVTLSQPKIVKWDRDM
In words: SPR, FcRn immobilised on CM5 chip, pH 6.0, steady state model.

The target of assay [4] is T2, recombinant human CD137-Fc fusion …. Kind of assay: SPR, biotinylated CD137-Fc captured on CAP chip, in analogy to Example 6. As to the method: Biotinlated CD137-Fc was immobilized on sensor chip and binding of the fusion polypeptides and lipocalin mutein was analyzed at different concentrations.
In assay [5] the target is T1, recombinant human GPC3 (R&D Systems …). In words: SPR, biotinylated GPC3 captured on CAP chip, 1:1 model, apparent affinity. As to the method:
Biotinlated GPC3 was immobilized on a sensor chip and binding of the fusion polypeptides and lipocalin mutein was analyzed at different concentrations.
(In general: Surface plasmon resonance follows binding to a sensor surface in real time, without labels.)

Assay [6] addresses T4, hFcγ RI/CD64 (R&D Systems) (human, UniProt P12314 16-288).
T4 construct: Soluble analyte in SPR; also called FcgRI
T4 sequence (P12314 16-288 limits assumed): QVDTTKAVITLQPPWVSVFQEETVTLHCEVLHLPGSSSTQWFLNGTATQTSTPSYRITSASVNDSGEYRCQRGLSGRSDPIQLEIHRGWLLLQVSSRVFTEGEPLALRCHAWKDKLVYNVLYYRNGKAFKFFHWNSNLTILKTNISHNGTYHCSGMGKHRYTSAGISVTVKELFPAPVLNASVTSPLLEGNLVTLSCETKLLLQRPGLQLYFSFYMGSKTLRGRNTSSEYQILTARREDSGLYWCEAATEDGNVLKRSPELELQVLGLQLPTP
In words: SPR, biotinylated fusion captured on CAP chip, receptor as analyte; Table 17 prints 'not determinable'. The procedure: The excess of non-reacted biotin reagent was removed by loading the reaction mixture onto a Zeba™ Spin Desalting Plate (Thermo Scientific). The reference channel was loaded with Biotin CAPture Reagent only.
All measurements were performed at 25° C. […] Prior to the protein measurements three regeneration cycles were performed for conditioning purposes. Data were evaluated with Biacore T200 Evaluation software (V 2.0). Double referencing was used.

Assay [7] has as its target T2, recombinant human CD137-Fc fusion …. In words: dual-binding ELISA: CD137-Fc coated, fusion titrated, biotinylated GPC3 detected with Extravidin-HRP.
From the text: as §1

T1 sequence (P51654 25-559 limits assumed): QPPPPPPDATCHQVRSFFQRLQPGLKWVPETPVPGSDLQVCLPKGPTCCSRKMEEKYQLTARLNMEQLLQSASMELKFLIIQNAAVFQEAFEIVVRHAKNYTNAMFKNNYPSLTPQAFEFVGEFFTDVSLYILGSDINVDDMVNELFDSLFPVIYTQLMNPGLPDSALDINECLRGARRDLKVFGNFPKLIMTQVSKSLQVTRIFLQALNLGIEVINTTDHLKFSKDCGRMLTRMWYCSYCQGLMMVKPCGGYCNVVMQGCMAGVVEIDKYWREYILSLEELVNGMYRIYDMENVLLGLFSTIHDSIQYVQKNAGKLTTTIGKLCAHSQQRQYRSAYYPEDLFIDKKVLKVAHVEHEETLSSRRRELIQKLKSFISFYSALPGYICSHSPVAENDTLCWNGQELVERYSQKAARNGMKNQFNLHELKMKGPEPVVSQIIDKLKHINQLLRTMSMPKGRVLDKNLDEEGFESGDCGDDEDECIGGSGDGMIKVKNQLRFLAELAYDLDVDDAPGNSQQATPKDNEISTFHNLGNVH

B1: lipocalin mutein-Fc fusion polypeptide of SEQ ID NO: 45 (Fc fusion)
chain: QDSTSDLIPAPPLSKVPLQQNFQDNQFQGKWYVVGRAGNVGLREDKDPPKMWATIYELKEDKSYDVTNVRFARKKCTYSIGTFVPGSQPGEFTLGQIKSEPGGTANLVRVVSTNYNQHAMVFFKEVYQNREIFFIILYGRTKELTSELKENFIRFSKSLGLPENHIVFPVPIDQCIDGGGGGSGGGGSQDSTSDLIPAPPLSKVPLQQNFQDNQFHGKWYVVGQAGNIRLREDKDPIKMMATIYELKEDKSYDVTMVKFDDKKCMYDIWTFVPGSQPGEFTLGKIKSFPGHTSSLVRVVSTNYNQHAMVFFKFVFQNREEFYITLYGRTKELTSELKENFIRFSKSLGLPENHIVFPVPIDQCIDGGGGGSGGGGSGGGGS[letters of human IgG4 Fc with S228P F234A L235A (EU numbers) not shown]
notes: Biotinylated for the Fc-gamma receptor SPR; also called IgG4Fc-lipocalin mutein fusion polypeptide
In the case of B1, the EC50 amounted to 0.12 nM in assay [1], 0.21 nM in assay [2] and 1.7 nM in assay [7]. The Kd in assay [3] was 1900 nM; in assay [4], 1 nM; in assay [5], 0.023 nM. Also, the binding result in assay [6] is “no binding (tested: 100 nM highest concentration of receptor)”.

B2: lipocalin mutein-Fc fusion polypeptide of SEQ ID NO: 44 (Fc fusion)
chain: QDSTSDLIPAPPLSKVPLQQNFQDNQFQGKWYVVGRAGNVGLREDKDPPKMWATIYELKEDKSYDVTNVRFARKKCTYSIGTFVPGSQPGEFTLGQIKSEPGGTANLVRVVSTNYNQHAMVFFKEVYQNREIFFIILYGRTKELTSELKENFIRFSKSLGLPENHIVFPVPIDQCIDGGGGGSGGGGSGGGGS[letters of human IgG4 Fc with S228P F234A L235A (EU numbers) not shown]GGGGSGGGGSGGGGSQDSTSDLIPAPPLSKVPLQQNFQDNQFHGKWYVVGQAGNIRLREDKDPIKMMATIYELKEDKSYDVTMVKFDDKKCMYDIWTFVPGSQPGEFTLGKIKSFPGHTSSLVRVVSTNYNQHAMVFFKFVFQNREEFYITLYGRTKELTSELKENFIRFSKSLGLPENHIVFPVPIDQCIDG
notes: as for B1
Take B2: the EC50 in assay [1] came out at 0.07 nM; in assay [2] it was 0.13 nM; in assay [7], 1.72 nM. The Kd came out at 2100 nM in assay [3], 1.1 nM in assay [4] and 0.029 nM in assay [5]. Moreover, in assay [6], the binding result is listed as “no binding (tested: 100 nM highest concentration of receptor)”.
